Results taken from the supplement of paper PMC3334620.
In all, about 33,000 sequences were measured (“E-score (-0.5 to 0.5)”: median about -0.016, highest 2% from about 0.32 on). Some of the results follow.

What follows are sequences tested against T1, Stp1 (UniProt B3LFK1) (assay: PBM E-score (8-mer binding enrichment) (E-score (-0.5 to 0.5)); higher = stronger / more preferred TF binding; most listed sequences are background and not binding sites). Details: protein concentration: 200 nM; construct: GST-full length.
T1 sequence: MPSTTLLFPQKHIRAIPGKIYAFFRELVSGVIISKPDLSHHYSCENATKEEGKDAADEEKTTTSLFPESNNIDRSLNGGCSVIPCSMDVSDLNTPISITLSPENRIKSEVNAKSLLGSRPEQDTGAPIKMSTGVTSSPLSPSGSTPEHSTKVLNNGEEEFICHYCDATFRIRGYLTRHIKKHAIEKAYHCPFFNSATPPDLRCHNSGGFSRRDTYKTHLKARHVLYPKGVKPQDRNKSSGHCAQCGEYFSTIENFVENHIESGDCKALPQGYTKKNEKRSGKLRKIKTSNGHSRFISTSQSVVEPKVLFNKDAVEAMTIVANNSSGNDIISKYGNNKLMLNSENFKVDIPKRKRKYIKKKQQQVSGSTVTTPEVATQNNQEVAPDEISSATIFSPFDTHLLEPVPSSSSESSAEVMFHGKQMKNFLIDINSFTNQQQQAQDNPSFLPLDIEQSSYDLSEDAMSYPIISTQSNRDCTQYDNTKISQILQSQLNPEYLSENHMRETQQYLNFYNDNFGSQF
Description: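 Universal 'all 10-mer' protein binding microarrays (Agilent AMADID 015681) probed with GST-tagged S. cerevisiae TFs (full-length or DBD) made by in vitro transcription/translation (PURExpress), about 100-200 nM. Bound TF was detected with fluorescent anti-GST. Each ungapped 8-mer (which stands for itself and its reverse complement) is scored by the PBM enrichment score (E-score), a modified Wilcoxon-Mann-Whitney statistic from -0.5 to +0.5, computed with the Universal PBM Analysis Suite. Scale: above 0.35 generally sequence-specific binding.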

| Sequence | PBM E-score |
| --- | --- |
| CTTTTTCC | 0.0308 |
| CCGCCACA | 0.0206 |
| AGCGAAAC | 0.191 |
| ACACTCTC | 0.0134 |
| CGCCAACC | -0.0271 |
| GGTAGAAA | 0.175 |
| GCATCTCC | 0.0358 |
| GATTTCGC | 0.267 |
| GAGTTTCA | -0.0138 |
| CCACGCGC | 0.0705 |
| CCGTTGTA | 0.133 |
| GCGTGTAC | 0.0532 |
| AATATCGC | 0.0624 |
| CGCGATTA | 0.0152 |
| CCCAAACA | -0.00715 |
| AGTGACCC | -0.267 |
| ATTGATCA | 0.0447 |
| AAGATTTA | 0.0761 |
| CGCCTAAA | -0.0442 |
| AGGTCAGC | -0.156 |
| CCCATGCG | -0.0914 |
| TATATCAA | 0.191 |
| GCAGCTAC | -0.007 |
| CAAGTTAG | -0.00852 |
| CTCTAAAA | 0.0923 |

| Sequence | PBM E-score |
| --- | --- |
| AATACTTG | 0.0331 |
| ATAGATCG | 0.00583 |
| CACGCAGC | -0.0588 |
| AGTACGTC | -0.0637 |
| CAACCACC | -0.19 |
| GGCTCCCA | -0.152 |
| ATGGAGGG | -0.311 |
| ATTGCCGC | 0.418 |
| GCCGTCGA | 0.278 |
| TCACCCAA | -0.00808 |
| CGTTCTAA | 0.0542 |
| AAGATGGG | 0.0482 |
| CGGTACAA | 0.08 |
| AAAATATC | 0.172 |
| AGAATAAC | -0.00738 |
| GCTGATCC | -0.116 |
| ACCTGAAC | -0.223 |
| AGTCCATG | -0.221 |
| AGGCTGGC | -0.378 |
| CGGTAGAG | -0.163 |
| CGGCCCGC | -0.0277 |
| AGAAGCCT | 0.0299 |
| GTGGATAA | -0.116 |
| GAGGTCGA | -0.099 |
| AAACAACG | -0.00102 |

| Sequence | PBM E-score |
| --- | --- |
| AGGCCTTG | -0.201 |
| GAGCTGAC | -0.00082 |
| CGCGGCCC | 0.349 |
| TCATACGA | 0.104 |
| CTTTCATC | 0.0152 |
| ACCCATGG | -0.102 |
| CGATATTA | 0.0913 |
| GCAGAAAA | 0.171 |
| CCATGAGG | -0.0913 |
| CGGTTTAA | -0.109 |
| CGTTAGGA | 0.0333 |
| CATCAGAC | 0.0335 |
| CACTATTA | -0.0147 |
| ACGCCCAT | -0.0727 |
| GCCTTAAA | 0.131 |
| ACATGTGG | 0.0769 |
| AAGTTGGA | 0.0716 |
| CGGAAGAC | 0.0382 |
| CTTTAGCA | -0.213 |
| CACGGTCC | -0.109 |
| CCACTTCA | -0.0855 |
| ACCGTGCA | -0.0437 |
| CCAGAATA | 0.0464 |
| AAAAACTC | 0.00309 |
| AACATCTA | -0.0371 |

| Sequence | PBM E-score |
| --- | --- |
| CCAACTAA | -0.0424 |
| GTAGAGAA | 0.0253 |
| AGCTCCCA | -0.206 |
| ATTACTGC | 0.0815 |
| ATTGAAAA | 0.159 |
| GCTAATTA | 0.137 |
| ATCCCGAT | -0.157 |
| ATCAAACG | 0.287 |
| GCGATCGA | 0.208 |
| ACTTCGGC | 0.0407 |
| GTGGTAAA | -0.0347 |
| GATTCTGC | 0.241 |
| ACCCTTCC | -0.193 |
| CAGATTCA | -0.126 |
| ACGTTGCG | 0.0401 |
| CCACAAAA | 0.0619 |
| AGGAAATC | 0.0354 |
| ACTATAAT | 0.122 |
| CACTATGA | -0.207 |
| CCCAACAC | -0.133 |
| AGACTCTG | -0.222 |
| AAAAATGT | 0.0261 |
| AAATCATC | -0.0786 |
| CCTGTAAC | 0.0142 |
| GCCATAGC | 0.0522 |

| Sequence | PBM E-score |
| --- | --- |
| ACGTGTGC | -0.128 |
| AAAGTCGG | -0.189 |
| AGAATTGA | 0.0122 |
| GTTAGTGA | -0.00961 |
| CACGTGCC | 0.28 |
| AGTTAGAG | -0.0464 |
| CTGTTTCC | -0.283 |
| CCAAGCAA | -0.103 |
| AGAACAAG | 0.0914 |
| AATGATCC | -0.0358 |
| AAGAGGCA | 0.363 |
| AAGTAGCT | -0.303 |
| GTTGTATA | 0.0897 |
| ACTCGAGG | -0.0841 |
| AGAAAAAT | 0.0941 |
| CCTTGCCG | 0.178 |
| GACAGCGC | 0.203 |
| AGCGGAAC | -0.0267 |
| GGACAATA | 0.0607 |
| ATAGCGGA | -0.197 |
| CTAGCTTA | -0.0324 |
| CTGCGACC | -0.243 |
| AACGCCGA | 0.292 |
| GACGGAAC | -0.0397 |
| TTATCCAA | 0.113 |

| Sequence | PBM E-score |
| --- | --- |
| AGGTCTGA | 0.021 |
| AGCAGTGG | -0.0995 |
| CCTGCTAC | -0.0762 |
| ACAGAACA | 0.0388 |
| ACTCCGCA | -0.124 |
| CCCTGATC | -0.255 |
| CCCATCAC | -0.283 |
| CGAGAAGC | -0.112 |
| CTGTCATA | 0.0409 |
| ACCGGTCG | -0.272 |
| AATGGGCC | -0.0293 |
| ATCACAGC | 0.0718 |
| CCGCTAAC | 0.0995 |
| GAAACAGC | -0.0001 |
| GCGGAGTA | -0.192 |
| ACCCGGGA | -0.144 |
| CACAATCG | 0.0953 |
| CCATGGCA | 0.0885 |
| TAGGCGCA | 0.155 |
| AATCACAC | 0.137 |
| GAAGACGC | -0.00189 |
| CACCCCGG | -0.286 |
| GACGATTA | 0.0173 |
| CCGACCCG | -0.086 |
| GGAGTTAC | -0.0897 |

| Sequence | PBM E-score |
| --- | --- |
| CAGCGGAA | -0.135 |
| CAATATCA | 0.0533 |
| GTCAGAAC | -0.094 |
| AGGTTACT | -0.139 |
| CTCAACAG | -0.0244 |
| CCGGGTGC | -0.0828 |
| CAAATGTA | 0.135 |
| CTATCTTA | 0.0702 |
| GCTAAATA | 0.172 |
| GCACGCCC | 0.0356 |
| GCCCATGA | -0.0742 |
| CTAAGCTC | -0.0659 |
| ATGGTGCG | -0.0219 |
| ACGGCCCT | 0.275 |
| CACTTAAG | 0.248 |
| GAGTTTGC | 0.0662 |
| ATATTTGA | 0.0238 |
| ATGCCTTA | 0.236 |
| AGTCACCA | -0.306 |
| AATGGCAG | 0.0303 |
| ACATAACA | 0.132 |
| AGGTGACA | -0.0681 |
